# Experimental data published in the supplement of paper PMC3334620.
# Whole data set: some 33,000 sequences, median “E-score (-0.5 to 0.5)” near -0.035, cut for the highest 2% near 0.34. Some of the results follow.
# Biological target: T1, Mot3 (UniProt P54785)
# T1 sequence: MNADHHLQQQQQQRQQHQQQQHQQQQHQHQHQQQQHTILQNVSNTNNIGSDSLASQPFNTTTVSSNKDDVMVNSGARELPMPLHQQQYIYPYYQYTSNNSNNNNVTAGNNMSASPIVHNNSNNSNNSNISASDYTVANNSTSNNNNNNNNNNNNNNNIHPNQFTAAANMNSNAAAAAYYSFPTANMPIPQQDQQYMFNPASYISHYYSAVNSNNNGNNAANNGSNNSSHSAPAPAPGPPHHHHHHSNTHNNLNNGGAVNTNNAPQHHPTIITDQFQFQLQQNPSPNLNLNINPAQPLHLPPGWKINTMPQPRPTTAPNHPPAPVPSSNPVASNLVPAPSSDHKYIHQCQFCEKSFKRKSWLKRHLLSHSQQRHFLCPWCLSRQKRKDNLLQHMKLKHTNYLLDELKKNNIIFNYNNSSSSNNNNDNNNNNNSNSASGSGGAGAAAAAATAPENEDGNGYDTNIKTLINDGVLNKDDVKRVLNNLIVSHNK
# Assay: PBM E-score (8-mer binding enrichment) (E-score (-0.5 to 0.5)); higher = stronger / more preferred TF binding; most listed sequences are background and not binding sites
# Conditions: protein concentration: 200 nM; construct: GST-full length
# Description: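 Universal 'all 10-mer' protein binding microarrays (Agilent AMADID 015681) probed with GST-tagged S. cerevisiae TFs (full-length or DBD) made by in vitro transcription/translation (PURExpress), about 100-200 nM. Bound TF was detected with fluorescent anti-GST. Each ungapped 8-mer (which stands for itself and its reverse complement) is scored by the PBM enrichment score (E-score), a modified Wilcoxon-Mann-Whitney statistic from -0.5 to +0.5, computed with the Universal PBM Analysis Suite. Scale: above 0.35 generally sequence-specific binding.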
row,Sequence,PBM E-score
1,ATCCTCTA,0.119
2,AACCGAGA,-0.0641
3,AGTAATGC,0.174
4,CTCCCCAC,-0.182
5,ATTCGTAG,0.0879
6,CGAGGCTC,-0.266
7,CACGCGGG,0.176
8,CTAGCGGA,-0.00619
9,GTAAACCA,0.0644
10,GGATATTA,0.151
11,ACCTTACG,0.0787
12,AGATGCAT,-0.258
13,CAACTCAG,-0.0909
14,ATGGCTAG,-0.0925
15,AACGTCGG,-0.122
16,ATAGCTTA,0.0449
17,CATGATGC,-0.108
18,CCGTGCGC,-0.0705
19,AGGAGACC,-0.21
20,CGTGTGCC,0.23
21,ATGGCGCG,-0.00066
22,GCAGCCCC,-0.239
23,CTTCTGTA,0.132
24,CAGTTTCG,-0.34
25,GGTCCGAC,-0.298

row,Sequence,PBM E-score
1,AATGGAGC,-0.0694
2,GGGTTAAA,0.0824
3,AACTTCCC,-0.18
4,GCGACCGA,-0.00598
5,ATTTTTCA,-0.0862
6,AGAAGAGA,-0.102
7,AAGAAGTC,-0.0398
8,CATGCGCG,-0.0181
9,ATCGATCC,-0.161
10,CTACGAGA,-0.0304
11,ATGCTTGG,-0.0595
12,TAACCGCA,-0.0584
13,CGATCAAA,-0.286
14,AGGAATTA,0.167
15,CCTCCCCG,-0.125
16,CATAGCGG,-0.144
17,ATTTCCTC,-0.0476
18,AACTCGTA,0.0061
19,CGCTCTGC,-0.0977
20,CGAGCAGA,-0.218
21,CGAGAAAG,-0.0244
22,AAGTTTGC,0.194
23,ATCATGGA,-0.335
24,GCCGCGGC,-0.194
25,AACGCACA,0.204

row,Sequence,PBM E-score
1,TCAAGACA,-0.0248
2,AGTTTGGC,-0.0829
3,AATAAAAG,0.116
4,CCAAGTCA,-0.216
5,CCTGCTCC,0.12
6,AATCATGA,0.04
7,AAAAACTT,0.185
8,CGGGCCCC,-0.199
9,GGTGACAC,-0.238
10,AGGCGCCA,0.183
11,CCGAGGGA,-0.312
12,CCAGACCC,-0.284
13,ACCAGATG,-0.0432
14,CAGATTCG,0.0317
15,TCGCACGA,-0.141
16,GGGACTCA,-0.371
17,AAGCAAAA,0.0833
18,CACACGGG,0.232
19,GCTTCATA,-0.0945
20,CAAATACA,0.251
21,TAGAGAAA,-0.0644
22,GCGATAGC,-0.0697
23,CTAATTTC,0.035
24,CTGTGGGA,-0.103
25,CAAACAGG,0.231

row,Sequence,PBM E-score
1,CAGCGGGC,-0.233
2,CTCGAAAC,-0.176
3,AATACAAG,0.313
4,CAGCTCCA,-0.155
5,CCGCCCCC,-0.265
6,CGCGATTC,-0.127
7,AGATCACC,-0.0505
8,ACCGCATC,-0.286
9,CGAATCAG,-0.0911
10,TACCGGGA,-0.00163
11,AGTACAGA,-0.0538
12,AACATTAA,0.186
13,ACACTCGT,-0.0339
14,CTCATCTA,-0.243
15,AGTCCGAG,-0.063
16,ACAACCAT,0.241
17,AGCTCACC,-0.249
18,TACTACTA,0.097
19,CCACTGAG,-0.135
20,GATCCAAA,0.0177
21,AGCACTGG,-0.15
22,CCACCCGC,-0.155
23,ACACCACT,-0.00421
24,GTTTGGGA,-0.0644
25,AACAAGCT,0.177

row,Sequence,PBM E-score
1,CAAATTCA,-0.0972
2,AATGTCCA,-0.0949
3,ATGGCAAT,-0.0216
4,CTAGCTAC,-0.0866
5,GACCGGGA,-0.271
6,GATTTACC,0.0796
7,GTAATTGA,0.277
8,GAGTTATC,-0.204
9,CACCTTTA,0.105
10,AGTGTGTA,0.247
11,ATACCTAG,0.131
12,AAGAGGAG,-0.133
13,CGGCGCCA,-0.137
14,CCTGACAC,0.025
15,ACGCCCCG,-0.265
16,CAGAGCCG,-0.157
17,GATAGTGC,-0.0565
18,ACTAATGG,-0.161
19,CATCCCAC,-0.212
20,GATTCAAA,-0.0689
21,GATGTGAA,0.211
22,TAGGAACA,0.416
23,AACGCGTT,0.335
24,GTTCCCCA,-0.0776
25,AAACTTCC,-0.145

row,Sequence,PBM E-score
1,GATATACC,-0.117
2,CATAACGC,0.188
3,CATAGCGC,0.0893
4,AGATATCA,0.0215
5,TGGTATAA,0.0814
6,GAACTTCC,-0.0463
7,CGTTTGAG,-0.0011
8,CCACACGA,-0.0566
9,AAGCTCAG,-0.215
10,TAAGCTCA,-0.00546
11,AAACGAAA,0.0838
12,GAAGCAAC,0.0752
13,CGCGGTGA,-0.163
14,AATCGCGC,-0.0999
15,AAAATTCG,0.116
16,ACCCTTAT,0.117
17,CCCCCGGA,-0.397
18,AGGAGGGC,-0.206
19,CTGGGAGC,-0.166
20,CCATTCCA,-0.0555
21,CCATACCC,-0.243
22,CGGAGACA,-0.142
23,CTGTGGGC,0.0151
24,GGCACCGA,0.356
25,GCGAAATA,0.0149

row,Sequence,PBM E-score
1,AAAACATC,0.151
2,CAACAGAG,0.068
3,AACGCGTC,0.194
4,AGGGGTGC,-0.121
5,CATCTGAG,-0.186
6,AGGCACAC,0.487
7,GATAAGCA,-0.00323
8,ACGCAGCA,0.113
9,CTTCCGGC,0.0464
10,CCTCGAGG,-0.336
11,CACTGGCC,-0.267
12,CTCCGCAA,-0.0257
13,CGTTTATA,0.12
14,AGAAGATA,0.106
15,CCATTAAA,0.0359
16,CACTATCG,-0.148
17,TGATGGCA,-0.0645
18,AGCTTCGG,-0.247
19,ATGATTGC,0.167
20,CGATACTA,0.0333
21,CCAGGTTA,-0.00113
22,GTTCAAAA,0.0223
